According to a compilation of properties of binary mixtures (doi:10.1016/j.jct.2020.106093):
The densities may have been worked out from excess volumes.

Assay: xn = mol fraction of the nth substance listed
Details: 100.9 kPa

CC(=O)[O-].CC[NH2+]CC + O
mass density [kg/m3]
Details | x1 = 0.015 | x1 = 0.055 | x1 = 0.119 | x1 = 0.168 | x1 = 0.24 | x1 = 0.35 | x1 = 0.549 | x1 = 0.708 | x1 = 0.835 | x1 = 1
293.15 K | 1003 | 1015 | 1021 | 1020 | 1013 | 999 | 985 | 972 | 965 | 949
298.15 K | 1001 | 1012 | 1018 | 1017 | 1010 | – | 982 | – | 961 | –
303.15 K | 999 | 1010 | 1015 | – | 1006 | 994 | 979 | 965 | – | –
308.15 K | 998 | 1008 | 1012 | 1010 | 1003 | 990 | 976 | 962 | – | –
313.15 K | 996 | 1005 | 1009 | 1007 | 1000 | 987 | – | 958 | 951 | –
318.15 K | 994 | 1002 | 1006 | 1004 | 997 | 984 | 970 | 955 | 947 | 932
323.15 K | 992 | 999 | 1003 | 1001 | 993 | 981 | 966 | 952 | 944 | –
